In patent US10287617B2, “Methods for in vitro—in vivo efficacy determination” (COLORADO STATE UNIVERSITY RESEARCH FOUNDATION, priority 2014, dated 2019):

Procedure: Human plasma using lithium heparin as anticoagulant was provided by the EFS (Etablissement Français du Sang) of Montpellier, France. Plasma was spiked with the compound in order to obtain a final drug concentration of 100 ng/mL (expressed as non-salified compound). The spiked plasma (dedicated to C1h and C4h) was then incubated at 37° C. for 1 h and 4 h. Plasma samples were analyzed by LC-MS/MS following protein precipitation. The limit of quantification for compounds was 10 ng/mL.
10 μL of the sample was injected to Luna Phenomenex C8 (50 mm×2.0 mm, 3 μm). […] MS/MS condition used for detection: Finnigan TSQ Quantum disco instrument, Excalibur version 2.0 acquisition system, ESI positive ion ionization mode. The mean percent of difference between C1h or C4h and C0 concentrations was calculated. M % D (%)=100×[(C1h or C4h)−C0]/C0
The compounds were considered as stable if the mean percent of difference between C4h and C0 concentrations was less than 20%.
As described previously^19, blood used in the assay was collected using lithium heparin as anticoagulant. Plasma spiked with the compound was analyzed by LC-MS/MS following protein precipitation. The limit of quantification for compounds was 10 ng/mL. Chromatographic conditions for LC were as described previously. The mean percent of difference between C1h or C4h and C0 concentrations were calculated using the formula; M % D (%)=100×[(C1h or C4h)−C0]/C0. The compounds were considered as stable if the mean percent of difference between C4h and C0 concentrations was less than 20%.

Row | Structure (SMILES) | Plasma Stability (% hydrolysis) Human (4 h) | Plasma Stability (% hydrolysis) Mouse (4 h) | plasma stability (4 hours) in humans
1 | CCCCOC(=O)Nc1cc2nc(C3CCCCC3)[nH]c2cc1N(C)C [SB-P17G-C2] | 6.1% |  | 
2 | CN(C)c1cc2[nH]c(C3CCCCC3)nc2cc1NC(=O)c1ccc(OC(F)(F)F)c(F)c1F [SB-P17G-A33] |  | −10.7% | 
3 | CN(C)c1cc2nc(C3CCCCC3)[nH]c2cc1NC(=O)c1ccc(OC(F)(F)F)cc1 [SB-P17G-A20] | 0.1% | 24.4% | 99.9%
